# Hit rate of the full screen: of about 310,000 compounds, about 2,200 (0.71%) showed an effect of 50% or more. The effect is printed as a negative number. The list shows a part of the results.
# Target: human ether-à-go-go-related gene (hERG) potassium channel (human, UniProt Q12809)
# Assay: primary screen, population patch clamp on CHO cells stably expressing hERG
# Sequence of human ether-à-go-go-related gene (hERG) potassium channel (Q12809 whole entry, looked up): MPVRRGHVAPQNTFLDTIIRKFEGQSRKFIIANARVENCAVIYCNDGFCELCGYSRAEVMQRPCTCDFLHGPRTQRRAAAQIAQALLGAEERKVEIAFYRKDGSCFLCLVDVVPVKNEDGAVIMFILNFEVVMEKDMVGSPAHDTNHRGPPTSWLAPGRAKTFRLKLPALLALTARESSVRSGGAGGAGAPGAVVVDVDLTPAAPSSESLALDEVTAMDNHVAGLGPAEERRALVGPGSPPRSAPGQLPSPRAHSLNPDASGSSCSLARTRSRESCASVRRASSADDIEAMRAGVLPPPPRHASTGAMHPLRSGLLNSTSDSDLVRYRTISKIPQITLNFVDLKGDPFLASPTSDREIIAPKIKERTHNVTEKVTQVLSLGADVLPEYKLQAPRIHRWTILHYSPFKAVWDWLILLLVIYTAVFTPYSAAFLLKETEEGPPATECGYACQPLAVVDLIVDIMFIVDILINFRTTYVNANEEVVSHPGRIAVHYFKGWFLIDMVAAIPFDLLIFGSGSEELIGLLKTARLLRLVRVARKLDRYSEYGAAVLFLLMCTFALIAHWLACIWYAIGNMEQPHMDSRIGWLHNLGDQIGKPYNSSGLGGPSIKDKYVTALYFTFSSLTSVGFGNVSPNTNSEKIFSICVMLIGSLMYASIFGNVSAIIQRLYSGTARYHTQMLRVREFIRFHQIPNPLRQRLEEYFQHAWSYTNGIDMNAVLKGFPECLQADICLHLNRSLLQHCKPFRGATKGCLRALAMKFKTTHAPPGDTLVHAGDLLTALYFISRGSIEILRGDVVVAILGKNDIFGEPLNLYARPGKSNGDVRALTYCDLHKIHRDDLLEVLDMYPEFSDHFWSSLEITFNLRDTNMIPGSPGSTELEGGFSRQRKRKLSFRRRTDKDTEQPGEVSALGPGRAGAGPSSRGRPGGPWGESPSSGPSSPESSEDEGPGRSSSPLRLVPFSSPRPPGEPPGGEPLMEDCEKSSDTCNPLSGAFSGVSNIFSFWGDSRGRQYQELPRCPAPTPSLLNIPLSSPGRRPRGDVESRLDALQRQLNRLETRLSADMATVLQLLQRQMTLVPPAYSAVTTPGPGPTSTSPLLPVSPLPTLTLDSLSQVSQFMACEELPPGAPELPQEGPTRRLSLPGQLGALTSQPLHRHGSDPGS
row,SMILES,"hERG current change (%, negative = inhibition) at 1uM"
1,CC(=O)NC1C(Oc2cccc(C)c2)OC2COC(c3ccco3)OC2C1O (stereo not shown),0.894%
2,COC(=O)CSc1nnc(NC(=O)CCc2ccccc2)s1,18%
3,Cc1cc(=O)c(C(=O)O)nn1-c1ccccc1Cl,19.2%
4,C=CCN(C(=O)Cn1ncc2c1-c1cc(C)ccc1OC2)c1ccccc1,-2.97%
5,Cn1c(=O)oc2cc(S(=O)(=O)NCc3ccccn3)ccc21,13%
6,CC(=O)Nc1ccc(NC(=O)C(=O)N/N=C/c2cccnc2)cc1,10.5%
7,CCCn1nc(C(=O)NNC(=O)CSCC(=O)Nc2cc(C)on2)c2ccccc2c1=O,12.3%
8,CCOC(=O)C1=C(N)OC(C)=C(C(=O)OCCOC)C12C(=O)Nc1ccccc12 (stereo not shown),4.11%
9,O=C(Cn1cccc1C(=O)c1ccccc1)NCCCN1CCOCC1,14.3%
10,COc1ccc2ncc(S(=O)(=O)c3ccccc3)c(N3CCN(c4ccccc4)CC3)c2c1,11.9%
11,Cc1ccc(-n2ccc(-c3nn(-c4ccccc4)ccc3=O)n2)cc1,3.98%
12,CCN1CCN(C(=O)c2ccc(COc3cccc(Cl)c3)o2)CC1,12.9%
13,COc1ccc(/C=N\NC(=O)c2ccccc2F)cc1COc1ccc(F)cc1F,6.72%
14,O=C(NCc1ccc(Cl)cc1)C(=O)NCC1OCCN1C(=O)c1cccs1 (stereo not shown),3.06%
15,COc1ccc(C(=O)Nc2ccccc2C(=O)N/N=C/c2ccccn2)cc1OC,15.7%
16,Cc1ccc(S(=O)(=O)N(CC(O)CN2CCOCC2)c2cc(Cl)ccc2Cl)cc1.Cl (stereo not shown),-2.22%
17,Cc1ccc(C)n1-n1cnc2sc3c(c2c1=O)CCCCC3,-9.02%
18,COP(=O)(NC(=O)C(Cl)(Cl)Cl)OC,9.73%
19,COc1cc(Cl)cc(/C=N/NC(N)=O)c1O,7.76%
20,O=C(NC1CCCC1)C(c1ccc(F)cc1)N(Cc1ccccc1)C(=O)c1csnn1 (stereo not shown),5.61%
21,CC(C)CNC(=S)Nc1ccc(Oc2ccccc2)cc1,17%
22,CN1C(=O)c2c(sc3c2CC(C)(C)SC3)N2CCN=C12.Cl,-4.34%
23,O=C(Cn1cnc2c(nnn2Cc2ccccc2)c1=O)NCc1ccccc1Cl,13.4%
24,COc1ccccc1-n1cc(C(=O)NCC(=O)N2CCN(Cc3ccccc3)CC2)c2ccccc2c1=O,2.9%
25,COc1ccccc1CNC(=O)c1cc2sccc2n1C,4.15%
26,CC(=O)c1cccc(S(=O)(=O)N2CCC(C(=O)OC3CCOC3=O)CC2)c1 (stereo not shown),-2.02%
27,CC1c2[nH]c3ccccc3c2CCN1S(C)(=O)=O (stereo not shown),1.6%
28,CC(=O)OCC[n+]1c(C)n(-c2ccccc2)c2ccc(Cl)cc21.[I-],5.45%

row,SMILES,"hERG current change (%, negative = inhibition) at 1uM"
1,CCn1cc(C(=O)NCc2ccccc2OC)c(=O)c2cc(S(=O)(=O)N(C)C)ccc21,10.2%
2,CCCn1c(NC(=O)c2ccc([N+](=O)[O-])o2)nc2ccccc21,8.32%
3,Cc1ccc(OCC(=O)Nc2ccccc2Sc2ccccc2)c([N+](=O)[O-])n1,13.9%
4,O=C(O)c1ccc(NC(=O)c2ccccc2NC(=O)c2ccccc2Br)cc1,15.7%
5,C=CCOn1c(=O)c(-c2cc3ccccc3o2)[n+]([O-])c2ccccc21,11.7%
6,COc1cccc(-c2onc3ccc(C(C)=O)cc23)c1,10.8%
7,CCOc1ccc(S(=O)(=O)N2CCC(C(=O)OC(C)C(=O)N3CCOCC3)CC2)cc1 (stereo not shown),-6.88%
8,Cc1ccc(NC(=O)CS(=O)CC(=O)N(c2ccc(C)cc2)C(C)C(=O)NC2CCCCC2)cc1 (stereo not shown),7.66%
9,O=C(c1cc2ccccc2oc1=O)N(Cc1ccccc1)C1CCS(=O)(=O)C1 (stereo not shown),-0.474%
10,CCC(=O)Nc1ccc(Cl)c(NC(=O)C(C)C)c1,6.47%
11,CCOC(=O)C1=C(C)N=C2SCCC(=O)N2C1c1sccc1C (stereo not shown),5.04%
12,Cc1ccc(C2CC(c3ccc(C)cc3)n3nc(N)nc3N2)cc1 (stereo not shown),3.75%
13,COc1ccc(NC(=O)Nc2nnc(N3CCC(C)CC3)s2)cc1OC,8.3%
14,C=CCn1c(SCc2c(C)noc2C)nc2sc(C)c(C)c2c1=O,1.2%
15,COc1cc2nc(CN(C)Cc3nc4ccccc4c(=O)[nH]3)[nH]c(=O)c2cc1OC,-1.41%
16,Cc1ccc(-c2nn(CC(=O)Nc3cccnc3)c(=O)c3ccccc23)cc1,13.5%
17,CCn1c(CCNC(=O)c2ccc(Cl)c(Cl)c2)nnc1SCCOc1ccc(OC)cc1,5.32%
18,CC(=O)c1ccc(N2CCN(C(=O)c3ccc(Cl)c(NC4=NC5CS(=O)(=O)CC5S4)c3)CC2)cc1 (stereo not shown),7.9%
19,O=C(C1=C(O)C(=O)N(Cc2ccco2)C1c1cccc([N+](=O)[O-])c1)c1ccco1 (stereo not shown),15.3%
20,O=C1C=C(c2cccc3c2sc2ccccc23)C[C@@H](c2ccc(Cl)cc2)C1,7.43%
21,COCCN1Cc2cccc(C(=O)Nc3c(C)cccc3C)c2C1=O,8.78%
22,COc1cc(C2NC(=O)NC(O)(C(F)(F)F)C2C(=O)c2cccs2)ccc1O (stereo not shown),1.23%
23,CCn1nc(C)c(Br)c1-c1nc(CS(=O)(=O)c2ccc(F)cc2)no1,10.5%
24,Cc1sc(NC(=O)c2cccs2)nc1-c1ccccc1,5.02%
25,O=C(COC(=O)CNC(=O)c1ccccc1Cl)Nc1ccccc1Cl,11.7%
26,COc1cc2nc(CN3CCN(S(=O)(=O)c4ccc(Cl)cc4)CC3)[nH]c(=O)c2cc1OC,-4.64%
27,COc1ccc(OC)c(-n2c(SCC(=O)Nc3cc(C)on3)nnc2-c2c[nH]c3ccccc23)c1,0.87%

# — article PMC4336329 (PLoS ONE, 2015)
